Positions count from the first letter of the chain named.
T1: human TROP2 (Homo sapiens, UniProt P09758)
T1 sequence (P09758 27-323): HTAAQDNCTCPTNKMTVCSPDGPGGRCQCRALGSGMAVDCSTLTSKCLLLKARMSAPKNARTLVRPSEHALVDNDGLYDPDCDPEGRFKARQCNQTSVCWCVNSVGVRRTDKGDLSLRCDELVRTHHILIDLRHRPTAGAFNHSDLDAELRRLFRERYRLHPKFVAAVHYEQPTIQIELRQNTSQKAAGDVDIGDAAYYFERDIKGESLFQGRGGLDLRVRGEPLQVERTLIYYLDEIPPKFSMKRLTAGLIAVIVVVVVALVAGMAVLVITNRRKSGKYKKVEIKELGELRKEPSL

B1: HC1/LC5 (antibody)
heavy: QVQLVQSGAEVKKPGASVKVSCKASGYTFTDYSINWVRQAPGQGLEWMGVISTYYGDASYNQKFKGRVTMTTDTSTSTAYMELRSLRSDDTAVYYCARYGDGYNQFDYWGQGTMVTVSS[human IgG1 constant region cut from this listing]
light: DIQMTQSPSSLSASVGDRVTITCRVSESVDSYGNNFMHWYQQKPGKAPKLLIYRASNLESGVPSRFSGSGSGTDFTFTISSLQPEDIATYYCQQSYEDPYTFGGGTKLEIKRTVAAPSVFIFPPSDEQLKSGTASVVCLLNNFYPREAKVQWKVDNALQSGNSQESVTEQDSKDSTYSLSSTLTLSKADYEKHKVYACEVTHQGLSSPVTKSFNRGEC
B2: HC2/LC2: humanized anti-TROP2 antibody, heavy chain SEQ ID NO: 53, light chain SEQ ID NO: 59 (antibody)
heavy: B1 heavy with T72R, A79V, R84S, D89E, M114L
light: DVVMTQSPLSLPVTLGQPASISCRVSESVDSYGNNFMHWFQQRPGQSPRRLIYRASNLESGVPDRFSGSGSGTDFTLKISRVEAEDVGVYYCQQSYEDPYTFGGGTKVEIKRTVAAPSVFIFPPSDEQLKSGTASVVCLLNNFYPREAKVQWKVDNALQSGNSQESVTEQDSKDSTYSLSSTLTLSKADYEKHKVYACEVTHQGLSSPVTKSFNRGEC
B3: HC4/LC2: humanized anti-TROP2 antibody, heavy chain SEQ ID NO: 55, light chain SEQ ID NO: 59 (antibody)
heavy: B1 heavy with A16S, M70I, T72A, T74E, R84S, D89E, M114L
light: B2 light
B4: HC2/LC5 (antibody)
heavy: B1 heavy with T72R, A79V, R84S, D89E, M114L
light: B1 light
B5: HC3/LC2: humanized anti-TROP2 antibody, heavy chain SEQ ID NO: 54, light chain SEQ ID NO: 59 (antibody)
heavy: B1 heavy with G44R, M70I, T72R, T76A, R84S, D89E, M114L
light: B2 light
B6: HC4/LC4: humanized anti-TROP2 antibody, heavy chain SEQ ID NO: 55, light chain SEQ ID NO: 61 (antibody)
heavy: B1 heavy with A16S, M70I, T72A, T74E, R84S, D89E, M114L
light: EIVLTQSPATLSLSPGERATLSCRVSESVDSYGNNFMHWYQQKPGQAPRLLIYRASNLESGIPARFSGSGSGTDFTLTISSLEPEDFAVYYCQQSYEDPYTFGGGTKVEIKRTVAAPSVFIFPPSDEQLKSGTASVVCLLNNFYPREAKVQWKVDNALQSGNSQESVTEQDSKDSTYSLSSTLTLSKADYEKHKVYACEVTHQGLSSPVTKSFNRGEC
B7: HC2/LC1 (antibody)
heavy: B1 heavy with T72R, A79V, R84S, D89E, M114L
light: DIVMTQSPDSLAVSLGERATINCRVSESVDSYGNNFMHWYQQKPGQPPKLLIYRASNLESGVPDRFSGSGSGTDFTLTISSLQAEDVAVYYCQQSYEDPYTFGQGTKLEIKRTVAAPSVFIFPPSDEQLKSGTASVVCLLNNFYPREAKVQWKVDNALQSGNSQESVTEQDSKDSTYSLSSTLTLSKADYEKHKVYACEVTHQGLSSPVTKSFNRGEC
B8: HC4/LC1 (antibody)
heavy: B1 heavy with A16S, M70I, T72A, T74E, R84S, D89E, M114L
light: B7 light

Tests used:
[1] = target: T1, human TROP2; experiment: SPR affinity ranking of humanized antibodies (Table 8C); format: binding
[2] = target: T1, human TROP2; experiment: Surface plasmon resonance kinetics and affinities (Table 8B); format: binding; settings: SPR, analyte TROP2
Description: Surface plasmon resonance (SPR) experiments were performed to determine the kinetics and affinities of certain antibodies shown in Table 8A.

Molecule	Ka [1] [M⁻¹ s⁻¹]	Kd (1/s) [1] [s⁻¹]	Rmax (RU) [1] [RU]	Rmax [2]	ka [2] [M⁻¹ s⁻¹]	kd [2] [s⁻¹]
B1	1.39e+06	0.000149	52.5	51.7	1.81e+06	0.000104
B2	24900	0.0251	63.7			
B3	184000	0.000984	2.8			
B4	1.42e+06	7.38e-05	65.6			
B5	169000	0.00177	3.5			
B6	1.71e+06	8.88e-05	38.6			
B7	1.54e+06	5.78e-05	65.3			
B8	1.69e+06	7.74e-05	56.6			
